# According to the supplement of paper PMC8512760:
# Structures can show the parent of a compound that is named as a salt. The list shows a part of the results. Most values come without repeats; read them as rough.
# Legend:
# Assay in all cases: cell viability relative to vehicle (% of vehicle); basal-like triple-negative breast cancer lines; higher = less cytotoxic
# Details in all cases: 10 µM; 72 h
# HCC-1143 = test system: HCC-1143
# HCC-1187 = test system: HCC-1187
# MDA-468 = test system: MDA-468
# SUM-149 = test system: SUM-149
# 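Further: stably firefly luciferase-GFP labeled cells in 96-well plates, viability read as luciferase photon flux after d-luciferin addition, treated wells normalized to vehicle wells, single-dose high-throughput screen.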
SMILES,cell viability (HCC-1143),cell viability (HCC-1187),cell viability (MDA-468),cell viability (SUM-149)
O=S(=O)([O-])CCSSCCS(=O)(=O)[O-].[Na+].[Na+] [Dimesna],92.4,117,103,92.9
CC(NCCCc1cccc(C(F)(F)F)c1)c1cccc2ccccc12 (stereo not drawn) [Cinacalcet],109,71.1,88.8,90.6
CCCCc1oc2ccc(NS(C)(=O)=O)cc2c1C(=O)c1ccc(OCCCN(CCCC)CCCC)cc1.Cl [Dronedarone HCl],99,96,135,114
CCOC(=O)c1ncn2c1CN(C)C(=O)c1cc(F)ccc1-2 [Flumazenil],98.3,98.7,91.4,111
N#CCC(C1CCCC1)n1cc(-c2ncnc3[nH]ccc23)cn1 (stereo not drawn),79.4,105,90.7,89.7
NCC(=O)CCC(=O)O [5-Aminolevulinic acid HCl],120,121,94.1,102
Cc1cn(C2C=CC(CO)O2)c(=O)[nH]c1=O (stereo not drawn) [Stavudine (d4T)],82.4,97,88.4,101
Cc1cccc(Nc2ccccc2C(=O)O)c1C [Mefenamic Acid],87.8,77.7,108,106
CN(C)CCCC1(c2ccc(F)cc2)OCc2cc(C#N)ccc21.O=C(O)C(=O)O (stereo not drawn) [Escitalopram Oxalate],76.7,101,112,88.9
O=c1cc(O)c(Cl)c[nH]1 [Gimeracil],92.2,91.7,91.4,110
C[N+](C)(C)CCOC(N)=O.[Cl-] [Carbamoylcholine chloride],111,96.8,130,103
CC(C)(C)NC(=O)C1CC2CCCCC2CN1CC(O)C(Cc1ccccc1)NC(=O)C(CC(N)=O)NC(=O)c1ccc2ccccc2n1.CS(=O)(=O)O (stereo not drawn) [Saquinavir mesylate],103,93.4,96.8,123
CC(=O)O[C@H]1Cc2ccccc2N(C(N)=O)c2ccccc21 [Eslicarbazepine acetate],73.3,82.8,119,102
COS(=O)(=O)[O-].C[N+]1(C)CCC(=C(c2ccccc2)c2ccccc2)CC1 [Diphemanil Methylsulfate],85.1,96.8,103,96.8
CC(C)Nc1cc(-c2c[nH]c(C(=O)NC(CO)c3cccc(Cl)c3)c2)c(Cl)cn1 (stereo not drawn),77.9,83.2,135,114
CC(Cc1cc2c(c(C(N)=O)c1)N(CCCO)CC2)NCCOc1ccccc1OCC(F)(F)F (stereo not drawn) [Silodosin],78.9,100,123,100
CCC(C(C)O)n1ncn(-c2ccc(N3CCN(c4ccc(OCC5COC(Cn6cncn6)(c6ccc(F)cc6F)C5)cc4)CC3)cc2)c1=O (stereo not drawn) [Posaconazole],89,84.4,71.9,102
CCC(C)(C)c1ccc(CC(C)CN2CC(C)OC(C)C2)cc1.Cl (stereo not drawn) [Amorolfine HCl],78.9,107,97.6,96.4
CCC1OC(=O)C(C)C(OC2CC(C)(OC)C(O)C(C)O2)C(C)C(OC2OC(C)CC(N(C)C)C2O)C(C)(O)CC(C)CN(C)C(C)C(O)C1(C)O.O.O (stereo not drawn) [Azithromycin Dihydrate],105,102,96.7,114
CCN(CC)CCOC(=O)C(c1ccccc1)c1ccccc1.Cl [Adiphenine HCl],72.4,82.6,109,126
Cc1cc(C=CC#N)cc(C)c1Nc1ccnc(Nc2ccc(C#N)cc2)n1 [Rilpivirine],92.2,84.7,83.1,109
CCCCCCCCOc1ccccc1C(=O)Nc1ccc(C(=O)OCC[N+](C)(CC)CC)cc1.[Br-] [Otilonium Bromide],78.1,73,84.9,122
CC(=Cc1ccccc1)C=C1SC(=S)N(CC(=O)O)C1=O [Epalrestat],117,112,162,123
CC(C)(C)NCC(O)c1cc(O)cc(O)c1.CC(C)(C)NCC(O)c1cc(O)cc(O)c1.O=S(=O)(O)O (stereo not drawn) [Terbutaline Sulfate],97.2,115,164,77.9
"CC=C1NC(=O)C2CSSCCC=CC(CC(=O)NC(C(C)C)C(=O)N2)OC(=O)C(C(C)C)NC1=O (stereo not drawn) [Romidepsin (FK228, depsipeptide)]",23.8,13.7,18.2,56.1
NC1CN(c2c(F)cc3c(=O)c(C(=O)O)cn(C4CC4F)c3c2Cl)CC12CC2.O (stereo not drawn) [Sitafloxacin Hydrate],80.8,61.8,81.3,117

SMILES,cell viability (HCC-1143),cell viability (HCC-1187),cell viability (MDA-468),cell viability (SUM-149)
CCC1OC(=O)C(C)C(OC2CC(C)(OC)C(O)C(C)O2)C(C)C(OC2OC(C)CC(N(C)C)C2O)C(C)(OC)CC(C)C(=O)C(C)C(O)C1(C)O (stereo not drawn) [Clarithromycin],92.6,94.7,92,109
CN(C)C(=O)c1cc2cnc(Nc3ccc(N4CCNCC4)cn3)nc2n1C1CCCC1,107,113,163,151
CN1C(C(=O)Nc2ccccn2)=C(O)c2sc(Cl)cc2S1(=O)=O [Lornoxicam],78.8,87.8,111,108
CCC(C)C(=O)OC1CC(C)C=C2C=CC(C)C(CCC3CC(O)CC(=O)O3)C21 (stereo not drawn) [Lovastatin],109,86.6,89.2,101
O=C(O)CCC(=O)O.O=C(OC1CN2CCC1CC2)N1CCc2ccccc2C1c1ccccc1 (stereo not drawn) [Solifenacin succinate],77.4,72.6,98.2,129
NNC(=O)c1ccncc1 [Isoniazid],85.2,92.5,88.6,89.3
CN1CCCN=C1C=Cc1cccs1.O=C(O)c1cc2ccccc2c(Cc2c(O)c(C(=O)O)cc3ccccc23)c1O [Pyrantel Pamoate],81.2,90.2,112,98.9
C#C[C@]1(O)CC[C@H]2[C@@H]3CCC4=CCCC[C@@H]4[C@H]3C(=C)C[C@@]21CC [Desogestrel],74.3,92.6,115,115
CCN1CCN(c2cc3c(cc2F)c(=O)c(C(=O)O)cn3C2CC2)CC1 [Enrofloxacin],92.2,95.7,114,117
CCOC(=O)NC1CCC2C(C1)CC1C(=O)OC(C)C1C2C=Cc1ccc(-c2cccc(F)c2)cn1 (stereo not drawn) [Vorapaxar],80.7,83.8,114,107
Nc1ccc(S(N)(=O)=O)cc1 [Sulfanilamide],112,84,96.6,99.4
CC1Cc2ccccc2N1NC(=O)c1ccc(Cl)c(S(N)(=O)=O)c1 (stereo not drawn) [Indapamide],95.1,113,107,92.7
CC(C(=O)[O-])c1cccc(Oc2ccccc2)c1.CC(C(=O)[O-])c1cccc(Oc2ccccc2)c1.[Ca+2] (stereo not drawn) [Fenoprofen Calcium],116,121,94.1,115
CCc1oc2ccccc2c1C(=O)c1cc(Br)c(O)c(Br)c1 [Benzbromarone],110,89.6,94.9,129
Cl.c1ccc(CC2=NCCN2)cc1 [Tolazoline HCl],73.9,86.5,124,104
Cc1nnc(C(=O)NC(C)(C)c2nc(C(=O)NCc3ccc(F)cc3)c(O)c(=O)n2C)o1 [Raltegravir (MK-0518)],88.4,86,93.9,130
CC(=O)OC1CC2CCC3C(CCC4(C)C3CC([N+]3(C)CCCCC3)C4OC(C)=O)C2(C)CC1N1CCCCC1.[Br-] (stereo not drawn) [Vecuronium Bromide],91.2,117,91.8,112
C[N+](C)(C)CCO.[Cl-] [Choline Chloride],69.1,99.1,91.4,90.1
CC[C@H](C)[C@@H]1NC(=O)[C@H](Cc2ccc(O)cc2)NC(=O)[C@@H](N)CSSC[C@@H](C(=O)N2CCC[C@H]2C(=O)N[C@@H](CC(C)C)C(=O)NCC(N)=O)NC(=O)[C@H](CC(N)=O)NC(=O)[C@H](CCC(N)=O)NC1=O [Oxytocin],87.3,86.4,97.4,91.1
O=C1CCc2ccc(OCCCCN3CCN(c4cccc(Cl)c4Cl)CC3)cc2N1 [Aripiprazole],72.8,108,96.8,106
CCCCC(=O)N(Cc1ccc(-c2ccccc2-c2nn[nH]n2)cc1)C(C(=O)O)C(C)C (stereo not drawn) [Valsartan],123,113,85.8,125
OCCN(CCO)c1nc(N2CCCCC2)c2nc(N(CCO)CCO)nc(N3CCCCC3)c2n1 [Dipyridamole],89.4,83.2,115,124
COc1ccc2cc1Oc1ccc(cc1)CC1c3c(cc4c(c3Oc3cc5c(cc3OC)CCN(C)C5C2)OCO4)CCN1C (stereo not drawn) [Cepharanthine],83.9,49.3,25.7,37.4
CCOC(=O)C(CCc1ccccc1)NC(C)C(=O)N1C(C(=O)O)CC2CCCC21 (stereo not drawn) [Ramipril],94.2,88.6,110,104
Nc1ncnc2c1ncn2C1OC(CO)C(O)C1O (stereo not drawn) [Adenosine],79.5,85.5,114,132
CN1CCC(=C2c3ccccc3CCc3sccc32)CC1.O=C(O)CC(O)C(=O)O [Pizotifen Malate],85.3,113,135,93.8
